# Assay results from PubChem BioAssay AID686970 (National Center for Advancing Translational Sciences (NCATS), 2013).
# The campaign covered roughly 360,000 compounds. About 6,000 (1.7%) were called active. About 8% were inconclusive and are not listed. The call rests on the fitted dose curve; in most records, active means well fitted cell-killing curve with a large enough effect; inconclusive means small, poorly fitted or top-dose-only effect, or effect the other way; inactive means flat fitted curve, though single readings scatter. The entries are a selection whose mix differs from that of the whole data set.
# Assay: qHTS for induction of synthetic lethality in tumor cells producing 2HG: qHTS for the HT-1080-NT fibrosarcoma cell line; further: nearly all actives have a fitted effect of over 55% in size
# Conditions: HT-1080-NT fibrosarcoma viability, CellTiter-Glo ATP luminescence, 48 h; series mostly up to 46.1 µM; activity, negative = less viability: at the top concentration
# Description: Unbiased genomic sequencing for 22 glioma genomes found recurrent mutation of IDH1 on chromosome 2q33, a gene encoding the cytosolic isoform of IDH1 associated with the tricarboxylic acid cycle (TCA) that catalyzes the oxidative decarboxylation of isocitrate, yielding alpha-ketoglutarate and CO2 via NADP+ to NADPH conversion. Subsequent studies confirmed the recurrent IDH mutations in up to 70% of secondary gliomas and in 10% of AML cases. In addition, the somatic mutation of cancer-associated IDH1 is a point mutation resulting in various amino-acid substituents at Arginine132 (IDH1 R132), a key residue found in the enzyme's active site that when mutated, results in the loss-of-function in metabolizing isocitrate but confers a gain-of-function to produce the oncometabolite 2-hydroxyglutarate (2HG). This in effect defines IDH1 as an oncogene and provides an extraordinary opportunity to discover chemical probes against mutant IDH1 that may translate into much needed new therapies for glioma and AML patients.
# This assay aims to perform a synthetic lethal screen for chemical probes specific for 2HG-producing tumor cells using matched paired cell lines (1) HT-1080-NT fibrosarcoma cell line that overproduces 2HG and (2) HT-1080-IDH1KD cell line which has IDH1 expression knocked-down. Desirable compounds are toxic to the NT fibrosarcoma cells but not to the IDH1KD cell line. The data in this AID corresponds to the results of the qHTS against the HT-1080-NT fibrosarcoma cell line.
# [1] Dang L, Jin S, Su SM. IDH mutations in glioma and acute myeloid leukemia. Trends of Mol Med. 2010; 16(9): 387-97.
# [2] Dang L et al. Cancer-associated IDH1 mutations produce 2-hydroxyglutarate. Nature. 2010; 465(7300):966.
# NIH Molecular Libraries Probe Production Centers Network [MLPCN]
# NIH Chemical Genomics Center [NCGC]
# Assay Submitter (PI): Lenny Dang Ph.D., Agios Pharmaceuticals
# Suspensions of trypsinized HT-1080-NT cells were dispensed into white, tissue culture-treated, solid 1536-well plates at 5uL/well (750 cells/well final concentration) in RPMI medium supplemented with 5% FBS. Plates were incubated at 37 degrees C for 2 hours, after which 23 nL of compounds or DMSO were delivered to each well using a pin tool. Plates were then incubated at 37 degrees C for an additional 48 hours. CellTiter-Glo viability reagent (Promega) was dispensed into wells (2.5uL/well) and incubated at room temperature for 10 minutes. The plates were measured on a PerkinElmer ViewLux plate reader for luminescent signal (clear filter, 1 sec exp). DMSO-treated control wells and media-only (no cells) control wells were used to normalize %Activity of identified toxic compounds; DMSO-treated wells corresponded to 0%Activity (100% viability), while media-only controls were used to normalize 100%Activity (0% viability).
# Concentration-response curves were fitted to the signals arising from the resulting luminescence. The concentration-effect curves were then classified based on curve quality (r2), response magnitude and degree of measured activity, and compounds were subsequently categorized based on their curve class.
# Potency means the concentration at half of the fitted maximal effect.
SMILES,Potency,"activity, negative = less viability"
Clc1cccc(N=C2NN=C(c3ccc4c(c3)OCCO4)CS2)c1,active: 10 µM,
O[C@H]1CN(Cc2cccs2)[C@@H](c2ccc(Cl)cc2)C[C@@H]1n1cc(C2CC2)nn1,,inactive: 10.2%
CC(=O)CC1OC(=O)C(Br)=C1NCc1ccccc1 (stereo not given),active: 3.55 µM,
Cc1ccc(Cc2c(-c3ccco3)nc3ccc(Br)cn23)cc1,active: 18.4 µM,
CCOC(=O)[C@H]1[C@H]2COc3cc(OC)ccc3[C@@H]2N2C(=O)N(c3ccc(Br)cc3)C(=O)[C@@]12C,,inactive: 4.98%
Cc1ccc2c(c1)c1c3n2CCNC3CCC1 (stereo not given),,inactive: -10.8%
COc1ccc(NC(=O)C(=O)NCC2CCCN2S(=O)(=O)c2ccc(C)cc2)cc1 (stereo not given),active: 0.206 µM,
CN/C(=C\[N+](=O)[O-])NCCSCc1ccc(CN(C)C)o1,,inactive: 27.6%
O=C(Nc1ccc(CN2CCOCC2)cc1)c1ccc(-c2ccc(Br)cc2)o1,active: 14.1 µM,
CC(C)(C)OC(=O)C[C@@H]1C/C=C\C[C@@H](CC(=O)NCCO)C(=O)NC[C@H](c2ccccc2)OC1=O,,inactive: -5.77%
c1cnc(N2CCN(Cc3ccc4c(c3)OCO4)CC2)nc1,,inactive: 37%
OCC[C@@H]1C[C@@H](O)[C@H](O)[C@]2(CCCc3ccccc3O2)O1,,inactive: -2.1%
OCC[C@@H]1C[C@@H](O)[C@H](O)[C@]2(OCCc3ccccc32)O1,,inactive: 6.85%
CCO[C@@H]1OC(C(=O)NC2CC2)=C[C@H](c2ccccc2)[C@H]1CCCO,,inactive: -4.02%
OCC[C@H]1C[C@@H](O)[C@H](O)[C@]2(OCCc3ccccc32)O1,,inactive: 0%
O=C1N[C@@H](Cc2ccccc2)C(=O)N2[C@@H]1C[C@@]1(Br)c3ccccc3N(S(=O)(=O)c3ccccc3)[C@@H]21,,inactive: 10.2%
O=C(NCc1ccccc1)[C@H]1C[C@@H]1[C@H](NP(=O)(c1ccccc1)c1ccccc1)c1ccccc1,,inactive: -4.22%
Cc1ccc(NC(=O)CN2CC(C)SC2=NC2CCCCC2)cc1 (stereo not given),,inactive: -27.7%
C[C@H](CCC(=O)O)[C@H]1CC[C@H]2[C@@H]3[C@H](O)C[C@@H]4C[C@H](O)CC[C@]4(C)[C@H]3C[C@H](O)[C@]12C,inactive,
C=CC[C@@H](CC(=O)N[C@H](CO)Cc1ccccc1)C(=O)NC[C@H](OC(=O)[C@@H](CC=C)Cc1ccc(F)cc1)c1ccccc1,,inactive: -21%
CS(=O)(=O)N1Cc2cc(C(=O)NCC3CC3)nc(-c3cccc(-c4cccnc4)c3)c2[C@H]1CCO,,inactive: -6.39%
CC(=O)NS(=O)(=O)c1ccc(N)cc1,,inactive: 7.09%
COc1ccc(NC(=O)/C(C#N)=C/c2ccc(Br)o2)cc1,,inactive: 11.5%
C[C@@H]1CN([C@H](C)CO)C(=O)CCCn2nncc2CO[C@H]1CN(C)Cc1ccncc1,,inactive: 11.3%
CCOC(=O)[C@H](CCc1ccccc1)N[C@@H](C)C(=O)N1C(C(=O)O)C[C@@H]2CCC[C@@H]21 (stereo not given in full),,inactive: 20.7%

SMILES,Potency,"activity, negative = less viability"
COC(C[C@H](O)C[C@@H](O)[C@@H](C)OCc1ccccc1)OC,,inactive: -0.964%
N#CC1=C(N)C(C#N)(C#N)[C@H](c2ccncc2)[C@H]2CN(C(=O)OCc3ccccc3)CC=C12,,inactive: -3.78%
COC(C[C@H](O)C[C@H](O)[C@@H](C)OCc1ccccc1)OC,,inactive: 21.5%
O=C(CCCN1C(=O)/C(=C\c2ccccc2)SC1=S)Nc1ccccc1O,,inactive: -6.87%
C[C@@H]1C[C@H](Nc2ccccc2)c2ccccc2N1C(=O)c1cccnc1,,inactive: -11.7%
CN1CCN(CCC=C2c3ccccc3Sc3ccc(S(=O)(=O)N(C)C)cc32)CC1,,inactive: -0.159%
COc1ccc(O)c(/C=N/NC(=S)NCCc2ccccc2)c1,active: 14.6 µM,
CCOC(=O)N1CC=C2C(C#N)=C(N)C(C#N)(C#N)[C@H](c3cccs3)[C@H]2C1,,inactive: -10.3%
COc1cc(Nc2ccccn2)cc(C(=O)Nc2cccc(C(F)(F)F)c2)c1,,inactive: -15.5%
COc1ccc(-c2nc(NC(=O)c3ccc(OCC(=O)Nc4ccc(F)cc4)c(OC)c3)sc2C)cc1,active: 18.4 µM,
CCCN1C(=O)S/C(=C/c2ccc(N3CCOCC3)o2)C1=O,,inactive: 5.43%
O=C1NC[C@@H](c2ccccc2)OC(=O)[C@@H](Cc2ccc(F)cc2)C/C=C\C[C@@H]1CC(=O)N(CCO)Cc1ccccc1,,inactive: 11.3%
CC(C)C[C@H]1CNC(=S)N1CC1CCCN1C[C@H](Cc1ccccc1)N1C[C@H](Cc2ccc(O)cc2)N(CC2CCCCCC2)C1=S (stereo not given in full),,inactive: -21.2%
COc1cc2nc(N3CCN(C(=O)[C@@H]4CCCO4)CC3)nc(N)c2cc1OC,,inactive: 0.537%
CC(/C=C/c1cccs1)=C\C(=O)O,,inactive: 3.1%
CCOC(=O)c1[nH]c2ccc(F)cc2c1NC(=O)CN1CCN(C/C=C/c2ccccc2)CC1,active: 20.6 µM,
Brc1ccc2[nH]c3nc(SCCN4CCOCC4)nnc3c2c1,,inactive: -13.2%
CC(C(=O)O)c1cccc(C(=O)c2ccccc2)c1 (stereo not given),,inactive: 15.8%
COc1ccc(NC(=O)CCN2C(=O)C3C4C=CC(C4)C3C2=O)cc1 (stereo not given),,inactive: -13.5%
CN1[C@@H]2CC[C@H]1CC(OC(=O)c1c[nH]c3ccccc13)C2 (stereo not given in full),,inactive: -4.7%
CCOC(=O)[C@@H]1[C@H]2COc3cc(OC)ccc3[C@@H]2N2C(=O)N(c3ccc(OC)cc3)C(=O)[C@]12C,,inactive: 0%
C[C@@H](c1ccccc1)N1C[C@@H](COCc2ccccc2)Oc2cc(N3CCC[C@@H]3CO)ccc2S1(=O)=O,,inactive: 0.385%
O=C(/C=C/c1ccc([N+](=O)[O-])cc1)c1ccccc(=O)c1O,active: 6.51 µM,
CCCCCC(=O)N1C[C@@H](n2cc(COC(=O)c3ccccc3)nn2)[C@H](O)C[C@@H]1c1ccc(OC)cc1,,inactive: 2.58%
NC(=O)c1oc2ccccc2c1NC(=O)c1ccc([N+](=O)[O-])o1,active: 1.46 µM,
